Reference: ChEMBL document CHEMBL1201862, “PubChem BioAssay data set” (2004)

The molecules below were run on NCI-H322M (assay: NCI anticancer screen, dose series, 48 h).

| SMILES | GI50 |
| --- | --- |
| CCOC(=O)C1CC(O)C(=O)N1C (stereo not drawn) | inactive: > 100 µM |
| CC(C)(C)/N=C/N1C=Cc2nc3ccccc3cc2C1 | inactive: > 100 µM |
| CC(=O)OCCOCBr | inactive: > 100 µM |
| CC(=O)CC1(CBr)Nc2ccc([N+](=O)[O-])cc2NC1=O (stereo not drawn) | inactive: 50.1 µM |
| COc1cc2c3cc1Oc1c(OC)c(OC)cc4c1C(Cc1ccc(O)c(c1)Oc1ccc(cc1)CC3N(C)CC2)N(C)CC4 (stereo not drawn) | inactive: 54.3 µM |
| COCn1c2ccc(OC(C)=O)cc2c2c(=O)oc(C)nc21 | inactive: > 100 µM |
| CC(=O)O[C@H]1C[C@@H](O[C@H]2[C@@H](O)C[C@H](O[C@H]3[C@@H](O)C[C@H](O[C@H]4CC[C@@]5(C)[C@H](CC[C@@H]6[C@@H]5C[C@@H](O)[C@]5(C)[C@@H](C7=CC(=O)OC7)CC[C@]65O)C4)O[C@@H]3C)O[C@@H]2C)O[C@H](C)[C@H]1O.CC(=O)O[C@H]1[C@@H](O)C[C@@H](O[C@H]2[C@@H](O)C[C@H](O[C@H]3[C@@H](O)C[C@H](O[C@H]4CC[C@@]5(C)[C@H](CC[C@@H]6[C@@H]5C[C@@H](O)[C@]5(C)[C@@H](C7=CC(=O)OC7)CC[C@]65O)C4)O[C@@H]3C)O[C@@H]2C)O[C@@H]1C | active: 0.0293 µM |
| CCOC(=O)c1ccc(Nc2nc3ccccc3nc2C(=O)OCC)cc1 | inactive: > 100 µM |
| COC(=O)C(C)N(C)C(=O)[C@H](CC(N)=O)N(C)C(=O)[C@@H]1CCCN1C(=O)[C@H](C(C)C)N(C)C(=O)C(C(C)C)N(C)C(=O)[C@H](Cc1ccccc1)N(C)C(=O)C(NC(=O)OC(C)(C)C)C(C)C (stereo partly drawn) (Boc-[ξV][NMeF][ξNMeV][NMeV]P[NMeN][ξNMeA]-OMe) | inactive: 20.3 µM |
| Cc1ccc(S(=O)(=O)N/N=C/C2(c3ccccc3)c3ccccc3-c3ccccc32)cc1 | inactive: 20.8 µM |
| N/C(=N\O)N/N=C/c1ccc(O)c(O)c1 | inactive: > 100 µM |
| CCCCCCCCCCCCCCC[C@@H](O)C[N+](C)(C)CCO | inactive: 13.6 µM |
| CCN(CC)c1ccc2cc(C(N)=O)/c(=N/c3ccc(F)cc3)oc2c1 | inactive: 4.55 µM |
| COc1cc(C=C2N=C(c3ccccc3)N(n3c(-c4ccccc4)nc4ccccc4c3=O)C2=O)cc(OC)c1OC | inactive: 20.8 µM |
| Cc1ccc(S(=O)(=O)OC2CS[S+]([O-])CC2OS(=O)(=O)c2ccc(C)cc2)cc1 (stereo not drawn) | inactive: 20.3 µM |
| C=C1CCc2ccccc2C1=O | inactive: > 100 µM |
| CCNC(=S)Nc1c(C#N)c2n(c1C(=O)OCC)CCCCC2 | inactive: > 100 µM |
| COc1cc(Br)c(CC2NCCc3cc(OC)c(OC)cc32)cc1OC (stereo not drawn) | inactive: 59.8 µM |
| O=[N+]([O-])c1ccc(OP(=O)(O)OCC2OC(CP(=O)(O)O)C(O)C2O)cc1 (stereo not drawn) | inactive: > 100 µM |
| COC(=O)C([C@H]1CC[C@H](OCc2ccccc2)[C@@]1(O)COCc1ccccc1)C(C)(O)CCc1ccccc1 (stereo partly drawn) | inactive: 24 µM |
| CSc1cnc2ccccc2c1SC1CN(Cc2ccccc2)c2ccccc2C1=O (stereo not drawn) | inactive: > 100 µM |
| CC(C)C(=O)N1Cc2cc(Cl)cc(Cl)c2OC(=O)c2ccccc21 | inactive: 42.3 µM |

| SMILES | GI50 |
| --- | --- |
| [O-][n+]1ccccc1Sc1nc(Sc2cccc[n+]2[O-])nc(Sc2cccc[n+]2[O-])n1 | inactive: 14.1 µM |
| CCOC(=O)C1=C(C(=O)c2ccc(C)cc2)C(c2cccc([N+](=O)[O-])c2)C(C(=O)c2ccc(C)cc2)=C(C(=O)OCC)N1 | inactive: 17.2 µM |
| Cc1[nH]c(-c2ccccc2)c(-c2ccc(Cl)cc2)c1C(=O)ONC(=O)c1ccccc1 | inactive: 9.02 µM |
| C[C@]12CCC(=O)C=C1CC[C@@H]1C2CC[C@]2(C)c3nn(-c4ccc(F)cc4)nc3CC12 (stereo partly drawn) | inactive: > 100 µM |
| COc1cc(/C=C2\[C@@H]3NC(Cc4c(OC)c(C)c(OC)c(OC)c43)C(=O)N2Cc2ccccc2)c(OC)c(C)c1OC | inactive: 80.5 µM |
| COc1cc2c3c(c1OC)-c1ccccc1C(C(O)c1ccccc1)C3N(C)CC2 (stereo not drawn) | inactive: 64.7 µM |
| C=C1C(=O)C2(C)OC2(C)C1C(=O)O (stereo not drawn) | inactive: > 100 µM |
| CC1CN1c1c(C(=O)/C=C/c2ccccc2)c(-c2ccccc2)nn(C)c1=O (stereo not drawn) | inactive: 18.2 µM |
| Nc1c(-c2ccccc2)c2ccc([N+](=O)[O-])cc2c(=O)n1-c1cccc(C(=O)O)c1 | inactive: > 100 µM |
| COc1ccc(C(=O)c2c3cc(OC)c(OC)c(OC)c3cc[n+]2C)cc1 | inactive: 67.3 µM |
| CC1(C)OC2OC(/C=C/[N+](=O)[O-])C3OC(C)(C)OC3C2O1 (stereo not drawn) | inactive: 17.7 µM |
| O=C(Nc1c(O)[nH]c(=S)[nH]c1=O)c1ccccc1 | inactive: > 100 µM |
| NCCC1CN(C(=O)OCc2ccccc2)c2ccccc21 (stereo not drawn) | inactive: 18.7 µM |
| O=C(O)c1ccc(Nc2nc3cc(C(F)(F)F)ccc3nc2-c2ccccc2)cc1 | inactive: 17.8 µM |
| [N-]=[N+]=Nc1ccc(NCCCCCC(=O)ON2C(=O)CCC2=O)c([N+](=O)[O-])c1 | inactive: > 100 µM |
| O=C(O)C1=C(CO)Oc2cc3c(cc2C1c1ccc2c(c1)OCO2)OCO3 (stereo not drawn) | inactive: > 100 µM |
| Cc1cc2c(C)nn(Cc3ccccc3Cl)c2c(C#N)c1C | inactive: > 100 µM |
| C#CCOC(=O)C(N)CC(N)=O (stereo not drawn) | inactive: > 100 µM |
| CC(C(=O)N1C(=O)N(C(=O)C(C)C(O)c2ccccc2)C2CCCCC21)C(O)c1ccccc1 (stereo not drawn) | inactive: > 100 µM |
| COC(=O)C1=C(OC(=O)/C(=C/c2ccccc2)c2ccccc2)C(C(=O)OC)[C@@]2(O)[C@@H](C(=O)OC)[C@H](C)C[C@@H]1[C@@H]2C(=O)OC (stereo partly drawn) | inactive: > 100 µM |
| CCC1=C(C)C(=O)N/C1=C\c1[nH]c(C)c([C@H](C)CCN)c1C | inactive: 14.7 µM |

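How tested: cells in 96-well plates exposed to compound for 48 hours at five concentrations. GI50 = concentration required for 50% inhibition of growth.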 The source made the active and inactive calls. Cut-off read from the data, not from the text of the source: active = GI50 up to about 1.1 µM and inactive = higher. Square brackets hold non-standard residues; d marks the D form. Peptide text beside a SMILES is read from it. * marks the point of attachment. ξ: configuration not given here. NMeF = CN[C@@H](Cc1ccccc1)C(=O)O; NMeN = CN[C@@H](CC(N)=O)C(=O)O; NMeV = CN[C@H](C(=O)O)C(C)C; ξNMeV = CNC(C(=O)O)C(C)C; Boc = CC(C)(C)OC(=O)*; ξNMeA = CNC(C)C(=O)O; ξV = CC(C)C(N)C(=O)O
